# Measurements published in the supplement of paper PMC3334620.
# Whole data set: some 33,000 sequences, median “E-score (-0.5 to 0.5)” near -0.011, cut for the highest 2% near 0.28. The list shows a part of the results.
# Molecular target: T1, Gcr1 (UniProt P07261)
# T1 sequence: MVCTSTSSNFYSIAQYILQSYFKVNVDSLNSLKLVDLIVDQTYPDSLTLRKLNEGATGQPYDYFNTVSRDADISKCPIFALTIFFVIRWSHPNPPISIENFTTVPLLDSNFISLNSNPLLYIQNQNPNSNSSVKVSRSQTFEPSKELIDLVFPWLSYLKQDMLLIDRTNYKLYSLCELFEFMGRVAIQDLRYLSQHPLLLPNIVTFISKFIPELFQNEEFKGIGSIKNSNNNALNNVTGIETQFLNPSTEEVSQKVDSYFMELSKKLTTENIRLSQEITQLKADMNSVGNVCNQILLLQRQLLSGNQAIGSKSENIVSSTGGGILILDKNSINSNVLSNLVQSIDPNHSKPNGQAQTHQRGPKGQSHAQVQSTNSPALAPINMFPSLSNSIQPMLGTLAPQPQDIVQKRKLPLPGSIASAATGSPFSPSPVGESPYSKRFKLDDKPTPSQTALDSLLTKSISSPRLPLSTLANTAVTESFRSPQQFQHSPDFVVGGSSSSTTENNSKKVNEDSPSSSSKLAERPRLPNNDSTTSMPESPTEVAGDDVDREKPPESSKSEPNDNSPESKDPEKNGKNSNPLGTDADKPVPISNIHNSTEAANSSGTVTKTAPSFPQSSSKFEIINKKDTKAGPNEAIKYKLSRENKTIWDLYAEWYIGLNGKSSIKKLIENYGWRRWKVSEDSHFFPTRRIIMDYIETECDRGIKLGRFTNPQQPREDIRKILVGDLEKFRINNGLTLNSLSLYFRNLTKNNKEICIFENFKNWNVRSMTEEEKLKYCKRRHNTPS
# Assay: PBM E-score (8-mer binding enrichment) (E-score (-0.5 to 0.5)); higher = stronger / more preferred TF binding; most listed sequences are background and not binding sites
# Conditions: protein concentration: 100 nM; construct: GST-full length
# In short: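 E-scores (a modified Wilcoxon-Mann-Whitney statistic) were assigned by the Universal PBM Analysis Suite to every ungapped eight-base word pooled with its reverse complement. The input came from universal all-10-mer Agilent arrays made double-stranded by primer extension and probed with GST-tagged yeast transcription factors at about 100-200 nM. Fluorescent anti-GST detected bound protein, and masliner normalised the scans.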
row,Sequence,PBM E-score
1,AACGCGAT,-0.0214
2,CTGCAAAA,0.0951
3,CGCCAGAG,-0.0121
4,CATGGGCC,-0.111
5,GACGTCGC,0.104
6,GACAAGAA,0.133
7,AAAACCTT,-0.0617
8,CCCAACTC,-0.0243
9,CAAGGTTC,0.0262
10,ACCGACGA,-0.132
11,GTCCCGAC,-0.134
12,GTGCTGAA,-0.146
13,GGAAGTAC,-0.0615
14,TACCAGTA,0.224
15,CTATCCTC,-0.0878
16,ATATCGGC,-0.0473
17,AGGTAGAT,0.036
18,CCCTTCCG,-0.286
19,ATATATCC,0.0296
20,ACCGCGGT,-0.332
21,GAAGACTC,-0.104
22,TATTAAAA,0.243
23,GGTCGTAC,-0.13
24,GGGTGGAA,-0.113
25,CATTAGGA,0.0896

row,Sequence,PBM E-score
1,CTCTAGAG,0.176
2,ACTGTTAA,-0.142
3,ACAGCTCT,-0.296
4,AAAAAGTA,0.266
5,CCCTTTAC,-0.0491
6,AATCTGCG,0.23
7,AACAGTAA,-0.028
8,ACTAGAGT,-0.0359
9,ATCGAGGC,-0.0857
10,GTGGGCCA,-0.153
11,CATCGTCA,-0.0259
12,GTTCAGCA,0.0491
13,AGGAAAAG,0.0223
14,GTCTGTCA,-0.0863
15,CCCTCTGA,-0.208
16,AATGGATA,0.0985
17,AACTTTCG,-0.0803
18,ACGCCCGC,0.105
19,CAACGATG,-0.131
20,GATGACAC,0.0557
21,ACAGAATC,0.0851
22,AGATGTAT,0.241
23,CACCTGCC,-0.127
24,GACTGAAC,-0.185
25,CGTCAGGA,-0.00623

row,Sequence,PBM E-score
1,GATGTACA,-0.207
2,GGTCCAAC,-0.104
3,AATCGCGG,0.0114
4,ACCTGGTG,0.0891
5,AAAGGAGT,0.0408
6,ACACGTGA,-0.063
7,AAACGAGG,-0.0367
8,ACCGCTAG,-0.0856
9,AACTTGTC,-0.0731
10,CAGTAGCG,-0.0886
11,TAACTCGA,-0.0164
12,CTAGGTAA,-0.326
13,ACTGCGAC,0.0788
14,TATATTAA,0.236
15,AGGTGGAG,-0.121
16,GAAACAAA,-0.0788
17,CTAGCTAG,-0.157
18,CGATGCGA,0.0626
19,AACCGCGC,-0.218
20,GAAGTTCA,0.129
21,AACCAGGT,0.0282
22,ACTTTCGC,0.0656
23,AGGGCCGC,-0.136
24,AGCTCTGA,-0.184
25,AATAGCAT,-0.00985

row,Sequence,PBM E-score
1,AGCGACCT,0.164
2,GCTAGTCC,-0.0924
3,AATTCTCA,0.0164
4,AAAGAAAG,-0.023
5,AGACGACC,0.00881
6,GAATTACC,0.0718
7,GGCTGCCC,0.272
8,GTACGGAC,-0.176
9,ACGAGCGG,-0.00855
10,AGGAGCGC,0.0762
11,GGCTGATA,-0.108
12,CCGGTTGA,0.0186
13,TGCAAAAA,0.156
14,GGGGATTA,0.0228
15,ATCGTGGC,-0.103
16,ATTTCTCG,0.149
17,CGAGTATC,0.0473
18,ATCCCGGA,0.08
19,CAACCAGC,-0.0265
20,ACAGGGGG,-0.0522
21,AAATGGAT,-0.0627
22,GCGCCAGC,-0.0858
23,CACAGTCA,-0.245
24,ACGTACCC,0.0373
25,CATTTACC,0.00933

row,Sequence,PBM E-score
1,AGCATGAG,-0.0444
2,CGTTTCAG,0.0761
3,GTGTGGGA,0.0285
4,CGAAAACG,0.0851
5,CATTCATC,-0.213
6,TCAGCGGA,-0.0105
7,CGTCAAAG,-0.0696
8,CCTTATAA,-0.029
9,AATATGTG,0.234
10,AATGATCT,0.017
11,GCCTTATA,0.117
12,CGGATGGA,0.0467
13,ACAGTACC,-0.206
14,ATCGAACC,-0.0413
15,ACAACTCG,0.0972
16,AGGATTAT,-0.099
17,AGCATACC,-0.0543
18,CCAAAAGC,-0.101
19,CAGGCATC,0.211
20,ACCGCGCG,-0.0975
21,TATCCTGA,0.156
22,ATAAGACG,0.192
23,ACAACTGG,0.169
24,TTCTAGAA,0.239
25,ACGGGTCC,0.151

row,Sequence,PBM E-score
1,ATTACCAG,0.0353
2,ACATCTCA,-0.0704
3,CCCTCCAC,-0.286
4,CAGCAGGG,-0.0402
5,CGTCACAC,-0.147
6,CGTGACTC,-0.205
7,ATCAAAAA,0.216
8,GATATCCA,-0.0382
9,TACAAAAA,0.0752
10,AACATTAG,0.0386
11,GACGTTGA,-0.133
12,AGCAGGCG,-0.085
13,CGGGCCGC,0.0123
14,GCACAGGC,-0.165
15,CAGACGGC,-0.112
16,CTCACCAG,-0.0314
17,ACCAAGTC,0.0379
18,TGCCGCAA,0.0502
19,CGGTGCAA,-0.117
20,ACGCATGA,-0.236
21,CAATTCAC,-0.262
22,TGAGCACA,-0.235
23,ACGTACCT,-0.278
24,CCTCACGC,0.156
25,AATTCCGT,0.0556

row,Sequence,PBM E-score
1,CCCCGACA,-0.229
2,AGAAACTA,0.0796
3,CTCAGCTA,-0.162
4,AGGAACAT,-0.151
5,TATGAGAA,0.13
6,CTAACTGA,-0.0279
7,AGCTTTTA,0.0211
8,CGGGCTAC,0.217
9,CAAGTAGC,0.00316
10,ATAATTCG,-0.00046
11,CGTCCACG,-0.0949
12,GATCAATA,-0.177
13,CTCTGGGA,0.0982
14,AGTGGGCA,0.0993
15,AGTCCACC,-0.261
16,AAGAAGAG,0.237
17,GTGGTCAA,-0.0869
18,GAAATACA,0.2
19,CGAGATAC,0.171
20,ACGCGAAC,0.0396
21,GCGACGCA,-0.0777
22,TGTACTAA,-0.0353
